Laboratory results: the supplement of paper PMC3334620
In all, about 33,000 sequences were measured (“E-score (-0.5 to 0.5)”: median about -0.056, highest 2% from about 0.38 on). Some of the results follow.

Each sequence was assayed against Stb4 (UniProt P50104) (assay: PBM E-score (8-mer binding enrichment) (E-score (-0.5 to 0.5)); higher = stronger / more preferred TF binding; most listed sequences are background and not binding sites). Conditions: protein concentration: 200 nM; construct: GST-DNA-binding domain.
In short: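 For each ungapped eight-base word taken together with its reverse complement, the Universal PBM Analysis Suite assigned an E-score. Binding data came from GST-tagged yeast transcription factors, applied at about 100-200 nM, on universal all-10-mer Agilent arrays made double-stranded by primer extension. Fluorescent anti-GST marked bound protein, and scans were normalised with masliner.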

Sequence	PBM E-score
CAACCTAG	-0.123
AGCCTGGG	-0.0641
AATGCTCC	0.119
CAGTCCCA	-0.198
GTCGAAAA	-0.122
ATAATGGC	-0.0423
ATCCGGGG	0.398
AATTAACA	0.00024
TGGCGACA	-0.0476
TAAAACTA	-0.0756
CACTGCCA	-0.176
AAGGTGTA	-0.155
ACAACTCC	0.0549
GCGACTAC	-0.0905
ACTGGCTG	0.0417
CCATGCAA	0.017
AAAGCATT	-0.147
CGATCTAA	0.0211
GGGGGACC	-0.00314
AACCCAGT	-0.00645
AGAATGAT	-0.204
AAGTACTC	-0.16
CAATAGTA	-0.0984
GTTGTCCA	-0.329
GTTCGTAA	-0.0144

Sequence	PBM E-score
AAATCCAG	-0.141
AGCTGTGA	-0.0782
CTTTAGTA	-0.181
CGGCCCCA	-0.0168
ATCGAGCC	0.0138
GCTTAACA	-0.0152
TGAAGGCA	-0.188
CATGCATA	-0.204
TCGGTGCA	0.212
CTCACATA	-0.267
TAGTGGAA	-0.0485
CGGCGATC	0.113
CCGGCAGA	0.286
GCGCCGGA	0.31
ACGCTTAT	-0.157
GACCAGGC	-0.273
AGAGACAG	-0.143
AGATTAGC	-0.168
GTGCAGAA	-0.184
ATTTGGAA	0.0129
TAATTCCA	-0.106
CTAGGATC	-0.117
GAGTCCTA	-0.237
ATAGGGTA	-0.132
CTTGCGAC	-0.132

Sequence	PBM E-score
AACTCCAC	-0.133
AAGGTCAA	-0.349
GCAGAGCA	-0.206
GATGTCGA	-0.0791
CTAAGCCC	0.00404
TAGGAGCA	-0.165
AATATTTC	0.137
AGTTTGCG	-0.133
CGATCGTA	0.103
AAGAATGG	0.0251
CTGCCCTA	-0.125
AACTGGCG	-0.0401
CTACCTAG	-0.0103
AAGGTAAT	-0.0845
CGAGGGAC	-0.127
GTGATTAA	-0.141
GATTCTAC	0.0127
ACGGAATC	0.315
AAAAGTCG	0.115
TCGAGAGA	-0.174
GCACGACA	-0.206
ATACTCCA	-0.152
ACCCTGTG	-0.0916
CCCGGTTA	0.28
GCAGCCAC	0.0201

Sequence	PBM E-score
CGAACTCA	0.0607
AAACCAGT	-0.206
CGGCCGCA	0.152
CAATCTCA	-0.169
GCGGTTCC	0.197
AAACGCGT	-0.0406
AACTCCAT	0.0197
ATGACACA	-0.138
CTTCCTCA	-0.208
AATTGATA	-0.0766
CCCCTCTC	-0.0387
ATGATCGC	0.0386
AGCGGGAA	0.221
CGGATACA	0.433
AATTGACG	-0.0605
CCTTAACC	-0.0244
CCAGAGCA	0.0101
ACGATTAC	-0.287
GATTAGGC	-0.183
CATGGCCA	-0.248
CAGTACCA	-0.249
AGATCCTG	-0.136
CAGTGGAA	-0.0505
GTTACGCA	-0.238
CCGCATCA	0.136

Sequence	PBM E-score
ATTCTATA	0.0665
TCCTATCA	-0.218
ATACGCTG	-0.00378
CTAAGGTC	-0.262
GGACGAGA	-0.0521
CATGGGCG	-0.0118
CTACAAGC	-0.258
ACAAAATG	-0.118
GGTAGCGA	0.0366
CTCGTTCC	0.262
ATTCGTAA	-0.17
GATACCGC	0.154
ATCATGTA	-0.336
CGAGACCA	0.0434
CGTCACAA	0.0479
CAGTTAGA	-0.0952
AAGAACTC	-0.0745
GCCTGAGA	0.0275
ATGTCATG	-0.158
GCAAGCAC	-0.288
TATACACA	-0.228
ACACGGTA	0.0561
ACAACGGT	-0.14
TAGCTGCA	-0.234
ATATGGGC	-0.0282

Sequence	PBM E-score
AAACGATG	-0.0183
CCACCGAC	0.0739
AATCCTGC	-0.102
AAAGAGAT	-0.153
TACAGATA	0.125
GAAGAGCA	-0.15
ACGCGCAC	-0.0738
CTTGCTTA	-0.105
CAAGAGCA	-0.195
ATCCACCA	-0.0567
CCACGCAA	-0.116
GAAAAGGC	0.0682
ATATGCCA	-0.0602
AACCCGGT	0.18
TACACCGA	0.241
TCAACAAA	0.0952
GTGCCTGA	0.0135
AACACATA	-0.27
AAAACGGG	0.267
AGGCAGCC	-0.0544
AATTGGGG	-0.154
GAAGCTCA	-0.114
CGCCTCCC	-0.0433
AGAATGAA	-0.0545
TAGTTGGA	0.0791

Sequence	PBM E-score
AGACGGTA	-0.0458
TCGGCTAA	0.455
AACCCGTT	0.0797
GCTCAGAC	-0.19
ACTCGAGT	-0.303
CACCCAGC	0.0106
ACTAAGCT	-0.264
CACCACCG	0.143
AGACTGCC	-0.0159
AGCCAGTC	-0.0537
CCGTGGGC	0.207
AGAAGCGG	0.0719
AGTATGAA	0.108
AGTTTGAG	-0.092
ACTACAGG	-0.0576
CAGAGGGC	-0.151
ACTCGGAC	0.327
ATGACGAA	-0.22
CTACCAGC	-0.334
AAGTCCCC	-0.0961
CATAGTAG	-0.144
CTATGAGC	-0.173
TAGCTAGA	-0.202
AAGTACGG	0.0722
AACCCGGG	0.317

Sequence	PBM E-score
GAGGGTGA	-0.109
AATGCCGC	0.143
CGGCACCG	0.324
GAACAACC	0.0669
CACGACTC	-0.181
CAAACTTG	-0.0139
CAATGCTC	-0.0798
ATTGTAAG	-0.122
GCAGTCGC	-0.26
GGCCGTGA	0.125
ATAGGGGA	-0.156
GACGTTGC	-0.00479
ATATGCGC	-0.117
ATATCATA	0.0484
ATGAGGCA	-0.224
CTTATAGC	-0.08
CATCCAAC	-0.212
AGGTACCC	-0.121
CAAACCGC	-0.00183
ACGCGCAA	0.0934
GTGACTCA	-0.292
GCAGTCAC	-0.084
ACCACCTG	-0.13
AATTGTTG	-0.19
CACTCATA	-0.149

Sequence	PBM E-score
CGATGCCA	-0.039
ACAGATTG	-0.0283
GATAAAGA	-0.0874
AAGGGCTC	-0.177
AGTACAGG	-0.0479
GCGAAAGC	-0.141
ATAATGTC	0.151
AGCATTTG	-0.0601
AAAGAAGG	-0.197
CCGTAACA	0.0635
CGGCTGGC	0.182
ACACGACG	-0.261
ATTTGTCA	-0.12
ATGTAAGA	-0.0823
ACTTCCAA	-0.19
ATGCACAT	-0.0577
CCGGGGAG	0.218
ACCAGGGA	-0.271
ACTAGAAT	-0.161
AACTATGT	-0.255
AATCAAGT	-0.169
CTACACAG	-0.315
GTAGGCAC	0.103
ACTTTCGG	0.416
AACGATTC	-0.0366

Sequence	PBM E-score
CAAGTCGG	0.267
ACCCTTCG	0.0471
ACTTCAAA	-0.103
CAAAGTAA	0.0795
AATTTGGA	-0.235
ACCAATGC	-0.00399
AGAATTGG	-0.161
CCGGAAAA	0.441
CGATATAA	0.0437
CCATCCGG	0.332
CGCGGTAC	0.312
TACATCCA	-0.202
TCATAAGA	-0.0249
ACCGAGTG	0.165
TAATTTCA	-0.0126
CCTGGGCC	-0.0612
AGGCTGCG	-0.162
CCAGTAAA	-0.0636
GACTCTAA	-0.095
AGTATTCA	-0.0817
TCATCCCA	-0.181
CCGGATAG	0.424
ACCAAAAG	-0.227
AATGCAGC	-0.19
GGGGCATA	-0.103

Sequence	PBM E-score
CGAAAAAG	0.151
ACGCCCGA	0.245
ACTTCCCA	-0.158
GCATCAAC	0.0461
AAAATTTA	-0.0837
CCTGTAAG	-0.283
CGACCGGA	0.31
GTGGAAGA	0.00601
TATTGAGA	-0.0948
ACCGGCGG	0.23
CCTTTAAG	-0.139
ACTGGCGG	0.12
GTAAGTCA	-0.109
CTAGGTGC	-0.0833
ACAGAGAA	-0.0546
CGGCCGAC	0.232
TCTGAACA	-0.137
CTATTAGA	-0.12
CCAATAGG	-0.217
ATGGTCTA	-0.224
GAAACGTC	0.0218
CTCGCATA	-0.176
ACTAGTCA	-0.19
AAGGGTTG	-0.175
AAGTTACC	0.226

Sequence	PBM E-score
CCGGCCCA	0.17
CTACGAAC	-0.233
CCCGATAC	0.287
GTGCCAAA	-0.0603
AAATATCA	-0.167
ATACAGAT	-0.185
AGTTATGA	-0.0314
ATCGAGTA	-0.151
CTTTGTGC	-0.138
TCCACTCA	-0.176
CCGCATTA	0.236
ATACCCTC	0.0255
AAAATAAA	-0.0248
GTGTGCGA	-0.083
CGGTCGAC	0.192
GTTGAGGA	-0.0286
TGATGCCA	-0.229
CGGTTGTA	0.098
ATTCAAAA	-0.0787
CGGCGAAC	0.248
AGAGTGAT	-0.165
GTTAATTA	0.153
CTTTAACA	0.0915
AGCCGGGA	0.323
ATGTCAGC	0.0161

Sequence	PBM E-score
ACGGTTCT	-0.182
ATGTTCTC	-0.107
CTACTTTC	0.0381
AACGGACG	0.0294
CGCGGCGA	0.135
AGCGAAGA	-0.208
AAGCTCCG	0.382
CCCGTTAC	0.161
TCGTCAAA	-0.0816
AAACACAG	0.0157
CTACGGTA	0.121
ACGAACTA	-0.194
CTCTTCAA	-0.101
AAACTGAC	0.0164
GATTTTCC	0.166
ACTAATAG	-0.0229
GTACTGTA	-0.171
ATGGCGAC	-0.0739
TCGGTCCA	0.2
CTTGTTAA	0.0614
AACTGCCT	-0.0357
CGTACGAA	0.0522
ATCCCCTC	-0.134
AAACTGTC	-0.164
CGGGGTGC	0.137

Sequence	PBM E-score
GAAGAAGA	0.0699
CTGCTGTA	-0.058
GAGATGTA	0.126
CCTGCTTA	-0.146
AAACTGCT	-0.213
CAGTTAAC	0.0713
GCTGCCCC	-0.0108
AGGCATGG	-0.023
ACCCATAA	0.088
AGATCGAG	-0.138
GCCCCCTA	-0.156
AGTGCCTG	-0.0659
AGCATGCC	-0.017
GGAAGTCA	0.159
CACGCTAA	-0.069
CGCCCGCA	0.103
AATGCTTA	-0.283
AAACGAGA	-0.0143
GGGGTCAA	-0.014
